Source: PubChem BioAssay AID294 (DTP/NCI, 2004)
A number of entries come with more than one value. They are shown here; other results are not. An entry can have further records. Values given together repeat one measurement across runs, samples, wells, individuals or studies.

System: MX-1 breast xenograft, nude mice, tumor weight change
Test: NCI In Vivo Anticancer Drug Screen. Data for tumor model Human Mammary Carcinoma MX-1 Xenograft (subcutaneous) in NU/NU Swiss (nude) mice
Settings: endpoint: optimum tumor weight change, higher = larger tumour
Method: The antitumor activity of compounds was measured in mice bearing transplantable tumors. Survival or tumor size were measured and the results are expressed as the measurement made in the treated group (T) divided by the measurement made in the vehicle treated control group (C). The tumor model used in this assay is Human Mammary Carcinoma MX-1 Xenograft (subcutaneous) in NU/NU Swiss (nude) mice

In the case of `CN(CO)c1nc(N(C)CO)nc(N(C)CO)n1`, the T/C (dose: 50.0 mg/kg/injection, schedule: Q04DX005 (ip), vehicle: saline) is reported as 53 % of control and 79 % of control and the T/C (dose: 100.0 mg/kg/injection, schedule: Q04DX005 (ip), vehicle: saline) is reported as -52 % of control and 4 % of control.

`CN(C)c1nc(N(C)C)nc(N(C)C)n1` was tested, and the T/C (dose: 120.0 mg/kg/injection, schedule: Q07DX005 (ip), vehicle: Klucel (hydroxypropylcellulose) (HPC)) was -69 % of control and 17 % of control.

With `O=S(CCCl)CCCl` the T/C (dose: 50.0 mg/kg/injection, schedule: Q04DX003 (ip), vehicle: Klucel (hydroxypropylcellulose) (HPC)) was 37 % of control and 72 % of control.
